These results are taken from the supplement of paper PMC6657886.

MIC of clinical N. gonorrhoeae isolates (2015-2017) by agar dilution on GC agar with 1% IsoVitaleX (ranges not stated); higher = less susceptible. No active / inactive call per row; the paper counts benzylpenicillin above 1 and ceftriaxone above 0.125 mg/L as resistant (EUCAST). The method is stated for benzylpenicillin and ceftriaxone and assumed for the other drugs. '<=' is inferred from pile-ups at the end values. Isolates are numbered anew. Bounds are passed on as bounds.

Common to all, as to experiment: Agar dilution on enriched GC agar; resistance determinants by microarray.
In general terms: In agar dilution the substance is mixed into plates at graded concentrations.

Compound in one test: CO/N=C(\C(=O)N[C@@H]1C(=O)N2C(C(=O)O)=C(CSc3nc(=O)c(O)nn3C)CS[C@H]12)c1csc(N)n1 [ceftriaxone]
Compound in a further test: CN[C@@H]1[C@H](O)[C@H](NC)[C@H]2O[C@@]3(O)C(=O)C[C@@H](C)O[C@H]3O[C@@H]2[C@H]1O [spectinomycin]
Compound in the next test: CC1(C)S[C@@H]2[C@H](NC(=O)Cc3ccccc3)C(=O)N2[C@H]1C(=O)O [benzylpenicillin]
Compound in another test: CN(C)[C@@H]1C(O)=C(C(N)=O)C(=O)[C@@]2(O)C(O)=C3C(=O)c4c(O)cccc4[C@@](C)(O)[C@H]3C[C@@H]12 [tetracycline]
Compound in a further test: CC[C@H]1OC(=O)[C@H](C)[C@@H](O[C@H]2C[C@@](C)(OC)[C@@H](O)[C@H](C)O2)[C@H](C)[C@@H](O[C@@H]2O[C@H](C)C[C@H](N(C)C)[C@H]2O)[C@](C)(O)C[C@@H](C)CN(C)[C@H](C)[C@@H](O)[C@]1(C)O [azithromycin]

Broadly, the MIC is the least concentration at which growth counts as inhibited. As for “Neisseria gonorrhoeae isolate 447 (blaTEM plasmid: no, gyrA: Phe91, Gly95, mtrR promoter: wild type, parC: Arg 87, Glu91, penA: ins345Asp, ponA: Pro421, porB: Asp120, Ala121, rpsJ: Met57, tetM plasmid: no)”, the MIC is not above 2 ng/mL in the test with ceftriaxone; 16 mg/L with spectinomycin; 0.25 mg/L in the test with benzylpenicillin; 0.5 mg/L in the test with tetracycline; 0.12 mg/L with azithromycin.
In the case of “Neisseria gonorrhoeae isolate 337 (blaTEM plasmid: no, gyrA: Phe91, Asn95, mtrR promoter: -35delA, parC: wild type, penA: wild type, ponA: Pro421, porB: wild type, rpsJ: Met57, tetM plasmid: no)”, the MIC in the test with ceftriaxone is not above 2 ng/mL; with spectinomycin, 32 mg/L; with benzylpenicillin, not above 0.015 mg/L; with tetracycline it was 0.25 mg/L; in the test with azithromycin it was 0.06 mg/L.
Turning to “Neisseria gonorrhoeae isolate 23 (blaTEM plasmid: no, gyrA: Thr91, Gly95, mtrR promoter: wild type, parC: wild type, penA: ins345Asp, ponA: wild type, porB: wild type, rpsJ: wild type, tetM plasmid: no)”, the minimum inhibitory concentration (MIC) with ceftriaxone is not above 2 ng/mL; with spectinomycin, 32 mg/L; with benzylpenicillin, not above 0.015 mg/L; with tetracycline, 0.5 mg/L; with azithromycin it was 0.06 mg/L.
Consider “Neisseria gonorrhoeae isolate 330 (blaTEM plasmid: no, gyrA: wild type, mtrR promoter: wild type, parC: wild type, penA: wild type, ponA: wild type, porB: wild type, rpsJ: wild type, tetM plasmid: no)”, for which the minimal inhibitory concentration (MIC) is not above 2 ng/mL with ceftriaxone; 32 mg/L with spectinomycin; not above 0.015 mg/L with benzylpenicillin; 1 mg/L with tetracycline; 0.002 mg/L with azithromycin.
In the case of “Neisseria gonorrhoeae isolate 279 (blaTEM plasmid: no, gyrA: wild type, mtrR promoter: wild type, parC: wild type, penA: wild type, ponA: wild type, porB: wild type, rpsJ: wild type, tetM plasmid: no)”, the MIC in the test with ceftriaxone is not above 2 ng/mL; with spectinomycin it was 32 mg/L; in the test with benzylpenicillin it was 0.03 mg/L; in the test with tetracycline, 0.5 mg/L; with azithromycin, 0.015 mg/L.
“Neisseria gonorrhoeae isolate 104 (blaTEM plasmid: yes, gyrA: Phe91, Asp95, mtrR promoter: wild type, parC: Asn 87, Lys91, penA: ins345Asp, ponA: Pro421, porB: Lys 120, Gly121, rpsJ: Met57, tetM plasmid: yes)”: the MIC in the test with ceftriaxone is 8 ng/mL; with spectinomycin it was 16 mg/L; with benzylpenicillin it was 16 mg/L; with tetracycline, 32 mg/L; in the test with azithromycin, 0.03 mg/L.
For “Neisseria gonorrhoeae isolate 195 (blaTEM plasmid: no, gyrA: wild type, mtrR promoter: wild type, parC: wild type, penA: wild type, ponA: wild type, porB: wild type, rpsJ: wild type, tetM plasmid: no)”, the minimum inhibitory concentration (MIC) with ceftriaxone is not above 2 ng/mL; with spectinomycin it was 32 mg/L; in the test with benzylpenicillin, 0.03 mg/L; in the test with tetracycline, 0.25 mg/L; in the test with azithromycin, 0.25 mg/L.
Regarding “Neisseria gonorrhoeae isolate 65 (blaTEM plasmid: no, gyrA: Phe91, Asn95, mtrR promoter: wild type, parC: wild type, penA: ins345Asp, ponA: Pro421, porB: Asn120, Asp121, rpsJ: wild type, tetM plasmid: no)”, the MIC with ceftriaxone was 15 ng/mL; with spectinomycin, 16 mg/L; with benzylpenicillin, 2 mg/L; in the test with tetracycline, 4 mg/L; in the test with azithromycin, 0.25 mg/L.
For the test system “Neisseria gonorrhoeae isolate 31 (blaTEM plasmid: no, gyrA: wild type, mtrR promoter: wild type, parC: wild type, penA: ins345Asp, ponA: wild type, porB: wild type, rpsJ: wild type, tetM plasmid: no)”, the MIC with ceftriaxone is not above 2 ng/mL; with spectinomycin it was 16 mg/L; in the test with benzylpenicillin, not above 0.015 mg/L; with tetracycline it was 0.25 mg/L; in the test with azithromycin it was 0.25 mg/L.
Regarding “Neisseria gonorrhoeae isolate 298 (blaTEM plasmid: no, gyrA: Phe91, Asn 95, mtrR promoter: wild type, parC: Arg 87, Glu91, penA: ins345Asp, ponA: Pro421, porB: wild type, rpsJ: Met57, tetM plasmid: no)”, the MIC in the test with ceftriaxone is not above 2 ng/mL; with spectinomycin, 32 mg/L; with benzylpenicillin, 0.25 mg/L; with tetracycline it was 1 mg/L; in the test with azithromycin, 0.06 mg/L.
Consider “Neisseria gonorrhoeae isolate 488 (blaTEM plasmid: no, gyrA: Phe91, Asn95, mtrR promoter: wild type, parC: Arg 87, Glu91, penA: ins345Asp, ponA: Pro421, porB: wild type, rpsJ: Met57, tetM plasmid: no)”, for which the MIC was not above 2 ng/mL in the test with ceftriaxone; 32 mg/L with spectinomycin; 0.12 mg/L with benzylpenicillin; 0.5 mg/L with tetracycline; 0.06 mg/L in the test with azithromycin.
Turning to “Neisseria gonorrhoeae isolate 362 (blaTEM plasmid: no, gyrA: Phe91, Asp95, mtrR promoter: -35delA, parC: wild type, penA: ins345Asp, ponA: Pro421, porB: Asp120, Gly121, rpsJ: Met57, tetM plasmid: no)”, the minimum inhibitory concentration (MIC) stood at 8 ng/mL in the test with ceftriaxone; 16 mg/L with spectinomycin; 0.5 mg/L with benzylpenicillin; 1 mg/L in the test with tetracycline; 0.25 mg/L with azithromycin.
On the same counts, the results for “Neisseria gonorrhoeae isolate 185 (blaTEM plasmid: no, gyrA: Ser91, Asn95, mtrR promoter: wild type, parC: wild type, penA: ins345Asp, ponA: Pro421, porB: wild type, rpsJ: Met57, tetM plasmid: no)” are 8 ng/mL, 8 mg/L, 0.06 mg/L, 0.5 mg/L and 0.06 mg/L.
On the same counts, the results for “Neisseria gonorrhoeae isolate 127 (blaTEM plasmid: no, gyrA: wild type, mtrR promoter: wild type, parC: wild type, penA: ins345Asp, ponA: wild type, porB: wild type, rpsJ: wild type, tetM plasmid: no)” are 8 ng/mL, 32 mg/L, 0.12 mg/L, 0.25 mg/L and 0.015 mg/L.
Consider “Neisseria gonorrhoeae isolate 153 (blaTEM plasmid: yes, gyrA: Phe91, Asn 95, mtrR promoter: wild type, parC: Asn87, Lys91, penA: ins345Asp, ponA: wild type, porB: wild type, rpsJ: Met57, tetM plasmid: yes)”, for which the MIC with ceftriaxone is 15 ng/mL; in the test with spectinomycin, 16 mg/L; with benzylpenicillin, not below 32 mg/L; in the test with tetracycline it was 64 mg/L; with azithromycin, 0.06 mg/L.
Turning to “Neisseria gonorrhoeae isolate 75 (blaTEM plasmid: no, gyrA: Phe91, Gly95, mtrR promoter: -35delA, parC: Arg87, Glu91, penA: ins345Asp, ponA: Pro421, porB: Asp120, Ala121, rpsJ: Met57, tetM plasmid: no)”, the minimal inhibitory concentration (MIC) in the test with ceftriaxone is 30 ng/mL; in the test with spectinomycin, 32 mg/L; in the test with benzylpenicillin, 1 mg/L; with tetracycline, 2 mg/L; in the test with azithromycin it was 0.06 mg/L.
The matching figures for “Neisseria gonorrhoeae isolate 422 (blaTEM plasmid: no, gyrA: Phe91, Asn95, mtrR promoter: -35delA, parC: Arg87, Glu91, penA: ins345Asp, ponA: Pro421, porB: wild type, rpsJ: Met57, tetM plasmid: no)”: not above 2 ng/mL, 16 mg/L, 1 mg/L, 1 mg/L and 0.5 mg/L.
As to “Neisseria gonorrhoeae isolate 264 (blaTEM plasmid: yes, gyrA: Phe91, Asn95, mtrR promoter: wild type, parC: wild type, penA: wild type, ponA: wild type, porB: wild type, rpsJ: Met57, tetM plasmid: yes)”, the MIC with ceftriaxone was not above 2 ng/mL; with spectinomycin, 16 mg/L; with benzylpenicillin, not below 32 mg/L; with tetracycline, 8 mg/L; with azithromycin it was 0.06 mg/L.
Take “Neisseria gonorrhoeae isolate 476 (blaTEM plasmid: no, gyrA: Phe91, Gly95, mtrR promoter: wild type, parC: Arg87, Glu91, penA: ins345Asp, ponA: wild type, porB: Asp120, Ala121, rpsJ: Met57, tetM plasmid: no)”: the minimal inhibitory concentration (MIC) in the test with ceftriaxone was not above 2 ng/mL; in the test with spectinomycin it was 16 mg/L; in the test with benzylpenicillin, 0.12 mg/L; with tetracycline it was 0.5 mg/L; in the test with azithromycin, 0.06 mg/L.
Turning to “Neisseria gonorrhoeae isolate 479 (blaTEM plasmid: no, gyrA: wild type, mtrR promoter: wild type, parC: wild type, penA: ins345Asp, ponA: Pro421, porB: wild type, rpsJ: wild type, tetM plasmid: no)”, the MIC with ceftriaxone is not above 2 ng/mL; with spectinomycin, 4 mg/L; with benzylpenicillin, 0.06 mg/L; with tetracycline it was 0.06 mg/L; with azithromycin, 0.03 mg/L.
On to “Neisseria gonorrhoeae isolate 464 (blaTEM plasmid: no, gyrA: Phe91, Gly95, mtrR promoter: wild type, parC: Arg87, Glu91, penA: ins345Asp, ponA: Pro421, porB: Asp120, Ala121, rpsJ: Met57, tetM plasmid: no)”, for which the MIC in the test with ceftriaxone is 8 ng/mL; with spectinomycin, 32 mg/L; with benzylpenicillin it was 0.25 mg/L; with tetracycline, 1 mg/L; with azithromycin, 0.06 mg/L.
Turning to “Neisseria gonorrhoeae isolate 412 (blaTEM plasmid: no, gyrA: Phe91, Gly95, mtrR promoter: -35delA, parC: Arg87, Glu91, penA: ins345Asp, ponA: Pro421, porB: wild type, rpsJ: Met57, tetM plasmid: no)”, the MIC with ceftriaxone was 8 ng/mL; with spectinomycin, 16 mg/L; with benzylpenicillin, 0.25 mg/L; with tetracycline, 0.5 mg/L; in the test with azithromycin it was 0.25 mg/L.
As to “Neisseria gonorrhoeae isolate 194 (blaTEM plasmid: no, gyrA: Phe91, Asn 95, mtrR promoter: wild type, parC: wild type, penA: ins345Asp, ponA: Pro421, porB: Asp120, Gly121, rpsJ: Met57, tetM plasmid: yes)”, the minimum inhibitory concentration (MIC) with ceftriaxone is not above 2 ng/mL; with spectinomycin, 8 mg/L; with benzylpenicillin, 1 mg/L; with tetracycline it was 16 mg/L; in the test with azithromycin, 0.06 mg/L.
As for “Neisseria gonorrhoeae isolate 287 (blaTEM plasmid: yes, gyrA: Phe91, Asp95, mtrR promoter: wild type, parC: wild type, penA: ins345Asp, ponA: wild type, porB: wild type, rpsJ: Met57, tetM plasmid: yes)”, the MIC with ceftriaxone was not above 2 ng/mL; with spectinomycin, 32 mg/L; with benzylpenicillin, not below 32 mg/L; with tetracycline, 16 mg/L; with azithromycin it was 0.12 mg/L.
Consider “Neisseria gonorrhoeae isolate 252 (blaTEM plasmid: no, gyrA: Phe91, Gly95, mtrR promoter: -35delA, parC: Ser87, Gly91, penA: ins345Asp, ponA: Pro421, porB: Asn120, Asp121, rpsJ: Met57, tetM plasmid: no)”, for which the MIC came to 15 ng/mL with ceftriaxone; 16 mg/L with spectinomycin; 0.5 mg/L with benzylpenicillin; 2 mg/L in the test with tetracycline; 0.12 mg/L with azithromycin.
